{"source": "PubChem BioAssay (NCI)", "note": "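Growth conditions: 96-well plates. Treatment: test compound, 48 hours, 5 concentrations. Analysis: linear interpolation between bracketing concentrations; unreached endpoints set to highest concentration. GI50 marks 50% less growth. The concentration for full growth arrest is given as TGI.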"}
{"test_system": "NCI-H322M lung", "test": "NCI anticancer screen, dose series, 48 h", "units": {"GI50": "µM", "TGI": "µM"}}
{"smiles": "O=C(/C=C/c1cccc(OCc2ccc(F)cc2)c1)c1nc2ccccc2[nH]1", "GI50": 59.9, "TGI": "> 100"}
{"smiles": "CN1CCc2c(sc3ncnc(N/N=C/c4ccc(Cl)cc4Cl)c23)C1", "GI50": 3.29, "TGI": "> 100"}
{"smiles": "Nc1nnc(-c2c[nH]c3ncc(Br)cc23)c(-c2c[nH]c3ccc(Br)cc23)n1", "GI50": 11, "TGI": 27.8}
{"smiles": "COc1cccc(-c2ccc(/C=N/NC(=O)c3[nH]c4ccc(Br)cc4c3-c3ccccc3)o2)c1", "GI50": 7.5, "TGI": "> 100"}
{"smiles": "O=C(CNc1nc(-c2ccccc2)cs1)Nc1ccc([N+](=O)[O-])cc1Cl", "GI50": 6.66, "TGI": 19.9}
